Measured values taken from PubChem BioAssay (NCI).
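Method: 48-hour compound exposure of cells in 96-well plates, five concentrations, linear interpolation of endpoints. At the GI50, growth is halved. TGI: total growth inhibition.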

These molecules were tested on NCI-H322M lung (assay: NCI-60 cell line screen, 48 h).

First: O=C(O)CN(CCN(CC(=O)O)CC(=O)O)CC(=O)O.[Mn+2]
Second: CCCCCC(=O)O[C@]1(C(C)=O)CCC2C3CCC4=CC(=O)CC[C@]4(C)C3CC[C@@]21C (stereo not given in full)
The GI50 of the first is higher: greater than 100 µM for the first, 5.06 µM for the second.

First: COc1cc(/C=C/c2cc(/C=C/c3ccc(O)c(OC)c3)n(C(=O)c3ccccc3Br)n2)ccc1O
Second: O=C(COc1ccc(/C=C2\Oc3ccccc3C2=O)cc1)Nc1nc2ccccc2s1
The GI50 of the first is lower: 3.5 µM for the first, greater than 87.8 µM for the second.

First: OCCCCC#Cc1ccccc1C#Cc1cccc(C(F)(F)F)c1
Second: Cc1cccc(Cn2cc(CO)c3cnccc32)c1
The GI50 of the first is lower: 16.4 µM for the first, greater than 100 µM for the second.

First: Nc1nccc(-c2c(-c3ccc(F)cc3)nn3cc(C(F)(F)F)ccc23)n1
Second: O=C(Nc1ccc(OC(F)(F)Cl)cc1)c1cnc(N2CC[C@@H](O)C2)c(-c2ccn[nH]2)c1
The GI50 of the first is higher: greater than 25 µM for the first, 12.5 µM for the second.

Going from `CC(=O)NC1C(O[C@H]2C[C@H]3[C@@H]4CC=C5C[C@@H](O)CC[C@]5(C)[C@H]4CC[C@]3(C)[C@H]2[C@H](C)C(=O)CCC(C)C)OCC(O)C1O` (stereo not given in full) to `OCC1CC[N-]CC1.OCC1CC[N-]CC1.[Cl][Pt+2]([Cl])([Cl])[Cl]`, the GI50 rises from 6.14 µM to 29.5 µM (4.8-fold).

First: C=CCN(CC=C)C(=O)c1cc(C)nc2c1c(=O)n(-c1ccccc1)c(=O)n2CCCN1CCN(c2ccccc2OC)CC1
Second: COCCN(CCOC)c1nc(-c2ccccc2)nc2ccccc12
The GI50 of the first is higher: greater than 50 µM for the first, 22.4 µM for the second.

First: Cc1cnc(C(=O)NNc2nc3sc4c(c3c(=O)[nH]2)C(C)CCC4)cn1 (stereo not given)
Second: CC(=O)[CH-]C(=O)c1ccccc1.[C-]#[O+].[C-]#[O+].[Ir]
The GI50 of the first is lower: 0.488 µM for the first, greater than 100 µM for the second.

`O=C(O)CN(CCN(CC(=O)O)CC(=O)O)CC(=O)O.[Mn+2]` and `O=C(NCCN(CCNC(=O)c1cccc(O)c1O)CCNC(=O)c1cccc(O)c1O)c1cccc(O)c1O` cannot be ordered by TGI: greater than 100 µM for the first, greater than 100 µM for the second.

`O=C(c1ccccc1)C1(Br)S(=O)(=O)OCCOS1(=O)=O` and `CC(=O)[CH-]C(=O)c1ccccc1.[C-]#[O+].[C-]#[O+].[Ir]` cannot be ordered by TGI: greater than 100 µM for the first, greater than 100 µM for the second.

First: O=S(=O)(/N=C(\NO)Nc1ccc(Cl)cc1)c1cc(C(F)(F)F)cc(C(F)(F)F)c1
Second: OC(c1ccccc1Br)(c1ccccc1Br)C(F)(F)F
The TGI of the first is lower: 33.4 µM for the first, greater than 100 µM for the second.

`CC(=O)OC1COC(N2CCc3cc([N+](=O)[O-])ccc32)C(OC(C)=O)C1OC(C)=O` (stereo not given) and `COc1ccc2nc(NC(=O)C(=O)CC(=O)c3ccc([N+](=O)[O-])cc3)sc2c1` cannot be ordered by TGI: greater than 100 µM for the first, greater than 100 µM for the second.

First: CCCCCCCCCCCCCCCCCCNc1ccn(C2OC(COP(=O)(O)OCC3OC(n4ccc(N)nc4=O)C(O)C3O)C(O)C2O)c(=O)n1 (stereo not given)
Second: COc1ccc(CCCCNCc2cccc(CNCCCCc3ccc(OC)cc3)c2)cc1
The TGI of the first is higher: greater than 100 µM for the first, 3.5 µM for the second.

Compared with `CSC(=O)/C=C1\SS/C(=C\C(=O)SC)S1`, `C=CCNC(=O)C(C)C1CCC2(C)C=CC(=O)C(C)=C2C1O` (stereo not given) is higher in TGI: 26.3 µM for the first, greater than 100 µM for the second.

Compared with `COc1cc(/C=C/c2cc(/C=C/c3ccc(O)c(OC)c3)n(C(=O)c3ccccc3Br)n2)ccc1O`, `COc1ccc(OC)c2sc(N3C(=O)/C(=C/c4cccc(Oc5ccccc5)c4)N=C3c3ccccc3)nc12` is higher in TGI: 40.1 µM for the first, greater than 100 µM for the second.

First: OCCCCC#Cc1ccccc1C#Cc1cccc(C(F)(F)F)c1
Second: N#Cc1ccccc1OCCOc1ccccc1C#N
The TGI of the first is lower: 30.6 µM for the first, greater than 100 µM for the second.

`Nc1nccc(-c2c(-c3ccc(F)cc3)nn3cc(C(F)(F)F)ccc23)n1` and `O=C(Nc1ccc(OC(F)(F)Cl)cc1)c1cnc(N2CC[C@@H](O)C2)c(-c2ccn[nH]2)c1` cannot be ordered by TGI: greater than 25 µM for the first, 31.7 µM for the second.

First: CC(=O)NC1C(O[C@H]2C[C@H]3[C@@H]4CC=C5C[C@@H](O)CC[C@]5(C)[C@H]4CC[C@]3(C)[C@H]2[C@H](C)C(=O)CCC(C)C)OCC(O)C1O (stereo not given in full)
Second: C[C@H]1CC[C@@]2(OC1)O[C@H]1C[C@H]3[C@@H]4CC[C@@H]5C[C@@H](OC6OC(CO)C(O)C(O)C6OC6OC(CO)C(O)C(O)C6O)CC[C@]5(C)[C@H]4CC[C@]3(C)[C@H]1[C@@H]2C (stereo not given in full)
The TGI of the first is 6.9-fold higher: 24.9 µM for the first, 3.6 µM for the second.

First: OCC1CC[N-]CC1.OCC1CC[N-]CC1.[Cl][Pt+2]([Cl])([Cl])[Cl]
Second: CCCCCC(=O)O[C@]1(C(C)=O)CCC2C3CCC4=CC(=O)CC[C@]4(C)C3CC[C@@]21C (stereo not given in full)
The TGI of the first is 4.1-fold higher: 89.3 µM for the first, 21.9 µM for the second.

First: COc1ccc2ccccc2c1C1=NC(C)(C)CO1
Second: COCCN(CCOC)c1nc(-c2ccccc2)nc2ccccc12
The TGI of the first is higher: greater than 100 µM for the first, 66.9 µM for the second.

`Cn1c(CNc2ccc(-c3n[nH]c(=S)n3C)cc2)n[nH]c1=S` and `Cn1c(=O)c2nc3sc4c(n3c2n(C)c1=O)C(=O)c1ccccc1C4=O` cannot be ordered by TGI: greater than 100 µM for the first, greater than 66.8 µM for the second.

First: CN=c1sc2c(n1C)C(=O)c1ccccc1C2=O
Second: CCOC(=O)c1cn(CC)c(=O)n2c1nc1ccccc12
The TGI of the first is lower: 5.22 µM for the first, greater than 100 µM for the second.

`C=CCN(CC=C)C(=O)c1cc(C)nc2c1c(=O)n(-c1ccccc1)c(=O)n2CCCN1CCN(c2ccccc2OC)CC1` and `O=C(NCCc1ccccc1)C1C(=O)C(=O)N(CCc2ccccc2)C1=O` (stereo not given) cannot be ordered by TGI: greater than 50 µM for the first, greater than 100 µM for the second.

Going from `C1CCC(N=C2N(C3CCCCC3)C(=NC3CCCCC3)N2C2CCCCC2)CC1` to `CC(C)(CN1CCCCC1)C(=O)/C=C/c1ccc(Br)cc1`, the TGI falls from greater than 100 µM to 12.8 µM.

`Cc1cc(O)c(/C=N/C(N)=S)c(=O)o1` and `CCOC(=O)C1=C(NC)OCC1=O` cannot be ordered by TGI: greater than 100 µM for the first, greater than 100 µM for the second.

`O=C1C(Cl)N(c2ccccc2Cl)C1c1c[nH]c2ccccc12` (stereo not given) and `c1ccc(C(c2ccccc2)c2ccccn2)cc1` cannot be ordered by TGI: greater than 100 µM for the first, greater than 100 µM for the second.

`CCOC(=O)C1(C)CCC(C(C(=O)O)C(=O)O)CC1=O` (stereo not given) and `CCOC(=O)C1(C/C=C\CBr)CCCC1=O` (stereo not given) cannot be ordered by TGI: greater than 100 µM for the first, greater than 100 µM for the second.

`CC(C)C(Cl)CCC(C)(Cl)C(=O)CBr` (stereo not given) and `[B]C(=O)NC(CC(C)C)C(=O)NCC(=O)NC1c2ccsc2C(=O)C1O` (stereo not given) (tested in a mixture with another compound) cannot be ordered by TGI: greater than 100 µM for the first, greater than 100 µM for the second.

`O=C(CCc1cc(O)cc(O)c1)NCCc1cc(O)cc(OCc2ccccc2)c1` and `O=C(CCCC(=O)Nc1ccc(Cl)cc1Cl)CC(=O)c1ccc2ccccc2c1` cannot be ordered by TGI: greater than 100 µM for the first, greater than 100 µM for the second.

First: COC1(OC)CCc2c(sc3ncnc(Nc4cccc(Br)c4)c23)C1
Second: Cc1cnc(C(=O)NNc2nc3sc4c(c3c(=O)[nH]2)C(C)CCC4)cn1 (stereo not given)
The TGI of the first is 1.7-fold higher: 71.5 µM for the first, 41 µM for the second.

Going from `O=C(O)CCCc1ccc2c(c1)CC1(C2)Cc2cc3c(cc2C1)CCCC3` to `COC(=O)C(C(=O)C(=O)Nc1c(Cl)cc([N+](=O)[O-])cc1Cl)c1csc(-n2nc(C3=CCCCC3)cc2-c2ccccc2)n1` (stereo not given), the TGI rises from 69 µM to greater than 100 µM.

`COC(=O)c1c(C)cccc1/C=C1\Cc2ccc(C)c(C)c2C1=O` and `O=C(COc1ccc(/C=C2\Oc3ccccc3C2=O)cc1)Nc1nc2ccccc2s1` cannot be ordered by TGI: greater than 100 µM for the first, greater than 100 µM for the second.

`Cc1cccc(Cn2cc(CO)c3cnccc32)c1` and `COc1cc(/C=C/c2csnn2)cc(OC)c1OC` cannot be ordered by TGI: greater than 100 µM for the first, greater than 100 µM for the second.

Molecule `CC12OC(=O)C(C#N)C1(C)C1C(=O)CCCC12` (stereo not given) has a TGI greater than 100 µM.
